Test results taken from the supplement of paper PMC12217912.
Some of the results follow. The full chains were built here from the parent and the listed change. Inactive controls read about 0.05.

B1: TEV protease; numbered along this chain (parent)
chain: MGESLFKGPRDYNPISSSICHLTNESDGHTTSLYGIGFGPFIITNKHLFRRNNGTLVVQSLHGVFKVKDTTTLQQHLVDGRDMIIIRMPKDFPPFPQKLKFREPQREERICLVTTNFQTKSMSSMVSDTSCTFPSGDGIFWKHWIQTKDGQCGSPLVSTRDGFIVGIHSASNFTNTNNYFTSVPKNFMELLTNQEAQQWVSGWRLNADSVLWGGHKVFMVKPEEPFQPVKEATQL

Variants of: B1
Test: raw area under fraction-flipped curve 0-4 h after induction (AUC4h, not background-subtracted), DNA-recorder readout of cleavage of the substrate (dimensionless); higher = more cleavage of the substrate by the protease variant
Conditions: temperature: 34 °C; time window: 0-4 h after rhamnose induction
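Also: Bxb1 expression induced with 0.2% (w/v) L-rhamnose at OD600 near 0.5, cultures sampled hourly, flipped fraction per protease–substrate barcode pair counted by paired-end Illumina sequencing.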

| Variant | area with substrate ENLYFCS | area with substrate ENLYFFS | area with substrate ENLYFGS | area with substrate ENLYFIS | area with substrate ENLYFPS | area with substrate ENLYFRS | area with substrate ENLYFTS | area with substrate ENLYFYS | area with substrate ENLYFDS | area with substrate ENLYFES | area with substrate ENLYFMS | area with substrate ENLYFWS | area with substrate ENLYFHS | area with substrate ENLYFKS | area with substrate ENLYFNS | area with substrate ENLYFVS | area with substrate ENLYFSS | area with substrate ENLYFLS |
| --- | --- | --- | --- | --- | --- | --- | --- | --- | --- | --- | --- | --- | --- | --- | --- | --- | --- | --- |
| MGESLFKGPRDYNPISSSICHLTNESDGHTTSLYGIGFGPFIITNKHLFRRNNGTLVVQSLHGVFKVKDTTTLQQHLVDGRDMIIIRMPKDFPPFPQKLKKREPQREERICLVTTNFQTKSMSSMVSDTSCTFPSGDGIFWKHWIQTKDGQCGSPLVSTRDGFIVGIHSASNFTNTNNYFTSVPKNFMELLTNQEAQQWVSGWRLNADSVLWGGHKVFMVKPEEPFQPVKEATQL [F101K] | 0.0515 | 0.0738 | 0.0166 | 0.059 | 0.0459 | 0.0558 | 0.043 | 0.0532 | – | – | – | – | – | – | – | – | – | – |
| MGESLFKGPRDYNPISSSICHLTNESDGHTTSLYGIGFGPFIITNKHLFRRNNGTLVVQSLHGVFKVKDTTTLQQHLVDGRDMIIIRMPKDFPPFPQKLKFREPQREERICLVKTNFQTKSMSSMVSDTSCTFPSGDGIFWKHWIQTKDGQCGSPLVSTRDGFIVGIHSASNFTNTNNYFTSVPKNFMELLTNQEAQQWVSGWRLNADSVLWGGHKVFMVKPEEPFQPVKEATQL [T114K] | 0.0675 | 0.0594 | – | 0.0282 | 0.0757 | – | – | 0.0536 | 0.0657 | 0.0729 | 0.0736 | 0.0409 | – | – | – | – | – | – |
| MGESLFKGPRDYNPISSSICHLTNESDGHTTSLYGIGFGPFIITNKHLFRRNNGTLVVQSLHGVFKVKDTTTLQQHLVDGRDMIIIRMPKDFPPFPQKLKFREPQREERICLVTTNFQTKSMSSMVSDTSCTFPPGDGIFWKHWIQTKDGQCGSPLVSTRDGFIVGIHSASNFTNTNNYFTSVPKNFMELLTNQEAQQWVSGWRLNADSVLWGGHKVFMVKPEEPFQPVKEATQL [S135P] | 0.0746 | 0.0683 | 0.0889 | 0.0723 | 0.0531 | 0.0521 | 0.0651 | 0.0627 | 0.047 | 0.051 | 0.0666 | 0.05 | 0.0542 | 0.0657 | 0.0618 | 0.0685 | – | – |
| MGESLFKGPRDYNPISSSICHLTNESDGHTTSLYGIGFGPFIITNKHLFRRNNGTLVVQSLHGVFKVKDTTTLQQHLVDGRDMIIIRMPKDFPPFPQKLKFREPQREERICLVTTNFQTKSMSSMVSDTSCTFPVGDGIFWKHWIQTKDGQCGSPLVSTRDGFIVGIHSASNFTNTNNYFTSVPKNFMELLTNQEAQQWVSGWRLNADSVLWGGHKVFMVKPEEPFQPVKEATQL [S135V] | 0.0572 | 0.0628 | 0.0516 | 0.0662 | 0.0592 | – | 0.0523 | – | 0.0507 | 0.0467 | 0.0619 | – | 0.0522 | – | 0.0508 | – | 0.0576 | – |
| MGESLFKGPRDYNPISSSICHLTNESDGHTTSLYGIGFGPFIITNKHLFRRNNGTLVVQSLHGVFKVKDTTTLQQHLVDGRDMIIIRMPKDFPPFPQKLKFREPQREERICLVTTNFQTKSMSAMVSDTSCTFPSGDGIFWKHWIQTKDGQCGSPLVSTRDGFIVGIHSASNFTNTNNYFTSVPKNFMELLTNQEAQQWVSGWRLNADSVLWGGHKVFMVKPEEPFQPVKEATQL [S124A] | 0.0571 | 0.0471 | 0.0422 | 0.0568 | – | – | 0.0476 | – | 0.0676 | 0.0637 | – | – | 0.0582 | 0.0756 | 0.072 | – | 0.0707 | 0.0587 |
| MGESLFKGPRDYNPISSSICHLTNESDGHTTSLYGIGFGPFIITNKHLFRRNNGTLVVQSLHGVFKVKDTTTLQQHLVDGRDMIIIRMPKDFPPFPQKLKFREPQREERICLVTTNFQTKSMSFMVSDTSCTFPSGDGIFWKHWIQTKDGQCGSPLVSTRDGFIVGIHSASNFTNTNNYFTSVPKNFMELLTNQEAQQWVSGWRLNADSVLWGGHKVFMVKPEEPFQPVKEATQL [S124F] | 0.0929 | 0.0595 | – | 0.0588 | 0.0609 | – | – | 0.0535 | – | – | 0.0666 | – | 0.0591 | – | – | 0.0487 | 0.0673 | – |
| MGESLFKGPRDYNPISSSICHLTNESDGHTTSLYGIGFGPFIITNKHLFRRNNGTLVVQSLHGVFKVVDTTTLQQHLVDGRDMIIIRMPKDFPPFPQKLKFREPQREERICLVTTNFQTKSMSSMVSDTSCTFPSGDGIFWKHWIQTKDGQCGSPLVSTRDGFIVGIHSASNFTNTNNYFTSVPKNFMELLTNQEAQQWVSGWRLNADSVLWGGHKVFMVKPEEPFQPVKEATQL [K68V] | 0.0591 | 0.0493 | 0.0538 | 0.0342 | 0.0577 | 0.0715 | 0.068 | – | – | – | 0.0798 | 0.0592 | – | 0.0796 | – | – | 0.0619 | 0.053 |
| MGESLFKGPRDYNPISSSICHLTNESDGHTTSLYGIGFGPFIITNKHLFRRNNGTLVVQSLHGVFKVKDTTTLQQHLVDGRDMIIIRMPKDFPPFPQKLKFREPQREERICLVTTNFQTKSMSSMVSDTSCTFPSGDGIFWDHWIQTKDGQCGSPLVSTRDGFIVGIHSASNFTNTNNYFTSVPKNFMELLTNQEAQQWVSGWRLNADSVLWGGHKVFMVKPEEPFQPVKEATQL [K142D] | 0.0641 | – | – | 0.0599 | 0.0658 | – | 0.0541 | 0.0579 | 0.0589 | 0.0641 | – | 0.0423 | 0.0596 | – | – | – | 0.0665 | – |
| MGESLFKGPRDYNPISSSICHLTNESDGHTTSLYGIGFGPFIITNKHLFRRNNGTLVVQSLHGVFKVKDTTTLQQHLVDGKDMIIIRMPKDFPPFPQKLKFREPQREERICLVTTNFQTKSMSSMVSDTSCTFPSGDGIFWKHWIQTKDGQCGSPLVSTRDGFIVGIHSASNFTNTNNYFTSVPKNFMELLTNQEAQQWVSGWRLNADSVLWGGHKVFMVKPEEPFQPVKEATQL [R81K] | 0.0504 | – | 0.0594 | 0.0729 | 0.0652 | – | – | – | – | – | – | 0.0619 | – | – | 0.0709 | 0.0543 | 0.0461 | 0.0625 |
| MGESLFKGPRDYNPISSSICHLTNESDGHTTSLYGIGFGPFIITNKHLFRRNNGTLVVQSLHGVFKVKDTTTLQQHLVDGRDMIIIRMPKDFPPFPQKPKFREPQREERICLVTTNFQTKSMSSMVSDTSCTFPSGDGIFWKHWIQTKDGQCGSPLVSTRDGFIVGIHSASNFTNTNNYFTSVPKNFMELLTNQEAQQWVSGWRLNADSVLWGGHKVFMVKPEEPFQPVKEATQL [L99P] | 0.0551 | 0.0541 | – | 0.0483 | 0.0609 | 0.0566 | 0.0541 | 0.0534 | 0.0533 | 0.0698 | 0.0644 | – | – | 0.0752 | 0.0692 | 0.0578 | 0.0628 | 0.0663 |
